Experimental data: patent publication US12441803B2, “Engineered CD25 polypeptides and uses thereof” (iBio, Inc., priority 2018, dated 2025)

Molecular target: T1, CD25 (Homo sapiens, UniProt P01589)
T1 sequence (P01589 22-272): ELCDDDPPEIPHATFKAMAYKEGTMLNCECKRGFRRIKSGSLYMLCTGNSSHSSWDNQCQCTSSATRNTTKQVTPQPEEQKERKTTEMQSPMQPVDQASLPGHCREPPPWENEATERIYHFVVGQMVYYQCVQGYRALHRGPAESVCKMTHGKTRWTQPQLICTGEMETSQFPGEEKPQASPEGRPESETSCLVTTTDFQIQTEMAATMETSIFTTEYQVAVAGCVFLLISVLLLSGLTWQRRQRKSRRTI
Experiment: Binding of human IgG1 format antibodies to CD25 by Octet
Settings: read-out: Biosensor Measured CD25 Affinity
Text: Thirty antibodies were selected for additional testing as full-length immunoglobulins. The heavy and light chain sequences were cloned into human immunoglobulin G (IgG1) format and expressed and purified.

Kd: 142 nM
B1: YU389-B11: anti-CD25 scFv clone, SEQ ID NO: 734 (protein, listed as Mus musculus)
scFv: PGSSVKVSCKASGGTFSSYAISWVRQAPGQGLEWMGGIIPIFGTANYAQKFQGRVTITADESTSTAYMELSSLRSEDTAVYYCAREMYYYYGMDVWGQGTTVTVSSCAREMYYYYGMDVW[letters of about 100 residues not shown]FGQGTKLEIKCQQSYSTPPTF
